# Measurements: PubChem BioAssay AID1345083 (National Center for Advancing Translational Sciences (NCATS), 2018)
# The whole screen tested about 94,000 compounds, of which about 6,200 (6.6%) were called active. This list was built around the results that the source calls inconclusive (neither active nor inactive); the mix of calls is not that of the screen. Calls come from the whole dose curve; as a rule, active = well fitted inhibition curve with a large enough effect; inconclusive = small, poorly fitted or top-dose-only effect; inactive = flat fitted curve, though single readings scatter. Potencies of inconclusive entries are doubtful fits and often do not repeat.
# Assay: Cytotoxic Profiling in HEK 293 Cell Line of Diverse Libraries Using Quantitative High-Throughput Screening; note: nearly all actives have a fitted effect of over 60% in size
# Details: HEK 293 viability, ATP luminescence (CellTiter-Glo), 48-72 h; activity change, negative = cytotoxicity: at 115 µM (top of the series) unless noted; series mostly up to 115 µM
# In short: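 qHTS cytotoxicity; HEK 293, 250 cells/well; compound pinned; 48 or 72 hr, 37 degree Celsius, 5% CO2, 95% humidity; CellTiter-Glo, 10 min RT; luminescence (ATP).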
# % is set by controls: 0 for no effect and ±100 for the full control effect; potency is the fitted concentration of half-maximal effect; tags give direction and shape of the fitted curve.
Structure (SMILES),Potency,"activity change, negative = cytotoxicity",outcome
CNC(=O)Nc1ccc(C2(C(=O)Nc3ccc4c(c3)CCC4)CCC2)cc1,"inconclusive: 31.6 µM [inhibitor, partial curve, poor fit]",–,–
Cc1[nH]cnc1C(=O)N1CCC2(CC1)CC(C(=O)O)N(C(=O)C1CC1)C2 (centres undefined),"inconclusive: 15.8 µM [inhibitor, full curve, poor fit]",–,–
Cn1cccc1-c1noc(C2CCN(C(=O)CCc3ccccc3)CC2)n1,"inconclusive: 50.1 µM [inhibitor, partial curve, poor fit]",–,–
Cc1ccc(Nc2ccnc(N3CCC(NC(=O)c4cccc(Cl)c4)CC3)n2)cc1,"inconclusive: 50.1 µM [inhibitor, partial curve, poor fit]",–,–
Clc1ccc(C2Cn3nnc(-c4noc(C5CCCC5)n4)c3CO2)cc1 (centres undefined),"inconclusive: 79.4 µM [inhibitor, single point]",–,–
O=C(Nc1cccc(Cl)c1F)N1CCC(OC2CCN(Cc3ccccc3)CC2)CC1,"inconclusive: 89.1 µM [inhibitor, single point]",–,–
Cc1cnc(C)c(-c2cc(O)c3c(c2)CN(C(=O)c2cc(C)[nH]n2)CCO3)n1,–,inactive: -21.5%,–
COc1ccc(-c2cc(N3CCCC(NC(=O)C4CCCC4)C3)n[nH]2)cc1 (centres undefined),"inconclusive: 35.5 µM [inhibitor, partial curve, poor fit]",–,–
O=C(Nc1ccccc1)N1CCC(Oc2ccccc2-c2nc(-c3ccccc3)no2)C1 (centres undefined),active: 25.1 µM,–,–
CC1=C[C@@H](CNS(C)(=O)=O)[C@H](C(C)C)C[C@H]1Cc1nc2ccc(Cl)cc2[nH]1,active: 100 µM,–,–
Cc1cccc(C(=O)N2CCC3(CC2)c2[nH]c4ccccc4c2CCN3C)c1,–,inactive: -8.54%,–
COc1ccc(-c2ncc3c(n2)OCCN(Cc2ccccc2)C3=O)cn1,"inconclusive: 100 µM [inhibitor, partial curve, poor fit]",–,–
CC(C)C(=O)N1CCN(CCCn2nc3n(c2=O)CCCC3)CC1,–,inactive: -15.1%,–
CCCNCc1ccc(-c2ccccc2)o1,–,inactive: -6.24%,–
CC(=O)N1CCC(N2C(=O)C3(CCCC3)C2c2scnc2C)CC1 (centres undefined),–,–,inactive
Cc1[nH]c2c(C)ccc(C)c2c1CC(=O)N1Cc2ccccc2C(O)C1 (centres undefined),–,inactive: -28.3%,–
O=C(NCCc1ccccc1F)C1CCc2nnc(-c3ccc(F)cc3)n21 (centres undefined),–,inactive: -2.21%,–
O=C1c2c(nc(COc3ccc(F)cc3F)n2Cc2ccccc2)NCCN1Cc1ccccc1F,"inconclusive: 28.2 µM [inhibitor, full curve]",–,–
CC(C)CN1CCc2[nH]cnc2C12CCN(C(=O)c1n[nH]c3c1CCC3)CC2,"inconclusive: 100 µM [inhibitor, partial curve, poor fit]",–,–
